# Test results from PubChem BioAssay AID463173 (ICCB-Longwood Screening Facility, Harvard Medical School, 2010).
# In all, about 52,000 compounds went through this assay and about 4,300 (8.3%) were called active. Cut-off read from the data, not from the text of the source: active = survival mostly below about 52% (no sharp cut-off); inactive = mostly above about 56%. The list shows a part of the results.
# System: DeltatarO mutant
# Experiment: growth inhibition of S. aureus wild type versus tarO mutant, primary screen, teichoic acid synthesis inhibitors, RN4220, OD600 (AID 463173)
# Conditions: OD600, 18 h, active compounds read low, screened at 18.75 µg/mL (by protocol)
row,Structure (SMILES),survival
1,O=C(O)CNC(=O)OCc1ccccc1,inactive: 97%
2,O=C(CSc1nc2c([nH]c3ccccc32)c(=O)n1-c1ccc(F)cc1)Nc1ccc2c(c1)OCCO2,inactive: 70%
3,CC1(C)CC(=O)C=C(NCC2CCNCC2)C1,inactive: 95%
4,CCS(=O)(=O)N1CCc2cc(C(=O)NCc3ccc(C)cc3)ccc21,inactive: 82%
5,CCOC(=O)c1nnn(-c2nonc2N)c1-c1ccccc1,inactive: 73%
6,CCC(Cn1nnc2ccccc2c1=O)NC(=O)Nc1ccccc1Cl (centres undefined),inactive: 85%
7,CCCCOc1ccc(C(=O)Nc2ccc3c(c2)N(C(C)=O)CCC3)cc1,inactive: 85%
8,Cn1cccc1-c1cc2n(n1)CCC(=O)N2CC(=O)Nc1ccc(F)cc1Cl,inactive: 88%
9,CCOc1cc(CNc2ccc(O)cc2)cc(Cl)c1OCc1ccccc1,active: 1%
10,COC(=O)c1ccc2c(=O)n(CCCCCC(=O)N3CCN(c4cccc(C)c4C)CC3)c(=O)[nH]c2c1,inactive: 90%
11,CN1CCN(C(=O)/C(=C/c2cccs2)NC(=O)c2cccs2)CC1,inactive: 74%
12,Cc1c(NC(=O)Cc2ccccc2)cccc1-c1nc2cccnc2s1,inactive: 89%
13,CCOc1ccc(NC(=O)c2cc3nc(-c4ccc(OC)cc4)cc(C(F)(F)F)n3n2)cc1,inactive: 134%
14,Cn1nc(-c2ccccc2F)c2cc(C(=O)N3CCN(c4ccccc4F)CC3)sc21,inactive: 40%
15,COCCCNc1nc2c(-c3cccc(Br)c3)nnn2c2ccccc12,inactive: 54%
16,Cc1c(C(=O)O)oc2c1-c1nn(Cc3ccccc3Cl)cc1CC2,inactive: 80%
17,COc1cc([C@@H]2Nc3c(F)cccc3[C@@H]3C=CC[C@@H]32)cc(Br)c1OC,inactive: 55%
18,COc1ccc2c(Sc3ccc(C)cc3)c(C(=O)NC(C)c3ccccc3)[nH]c2c1 (centres undefined),inactive: 89%
19,CCc1ccccc1NC(=O)c1ccc(F)c(S(=O)(=O)N2CCN(c3ccccc3OC)CC2)c1,inactive: 89%
20,COCCNC(=O)CN1C(=O)CCn2nc(-c3cn(C)c4ccccc34)cc21,inactive: 72%
21,CCOC(=O)N1CCN(CCC(=O)Nc2cccc(F)c2)CC1,inactive: 74%
22,Cc1c(C(=O)NCc2ccc(Cl)cc2)sc2nc3n(c(=O)c12)CCC3,inactive: 102%
23,Cc1ccc(NC(=O)CC(c2ccc(F)cc2)N2Cc3ccccc3C2=O)cc1C (centres undefined),inactive: 74%

row,Structure (SMILES),survival
1,Cc1cccc(N2C(=O)C(CC(=O)Nc3cccc(F)c3)N(CCc3ccncc3)C2=O)c1 (centres undefined),inactive: 75%
2,O=S(=O)(c1ccc(Cl)cc1)c1nc(-c2ccccc2F)oc1NCc1ccccc1,inactive: 67%
3,COc1ccc(NC(=O)C2=CC(c3ccc4c(c3)OCO4)=NS(=O)(=O)N2C)cc1OC,inactive: 79%
4,Cc1ccc(C(=O)N(CC#N)CC#N)cc1,inactive: 94%
5,Cc1ccc(Sc2ccc(N3CCC(C(=O)Nc4ccc(Cl)cc4)CC3)nn2)cc1,inactive: 72%
6,Fc1ccccc1CSC1=NCCN1,inactive: 98%
7,CCc1ccc(C(=O)c2cn(CC(=O)NCc3ccc(C)cc3)c3nc(C)ccc3c2=O)cc1,inactive: 98%
8,CCOC(=O)CCNC(=O)N1CCN(S(=O)(=O)c2ccc3c(ccn3C)c2)CC1,inactive: 89%
9,CCc1nn(CC(=O)NCCCc2ccccc2)c(=O)c2cc3cc(F)ccc3n12,inactive: 71%
10,Cc1ccc(CNC(=O)c2ccc3c(c2)NC(=O)C(CS(=O)(=O)Cc2cccc(F)c2)N3)cc1 (centres undefined),inactive: 86%
11,CC(=O)c1ccc(NC(=O)c2cc3c(=O)oc4ccc(C)cc4c3s2)cc1,inactive: 106%
12,Cc1ccc(N2CCN(C(=O)C3CCN(S(=O)(=O)c4ccc5c(c4)oc(=O)n5C)CC3)CC2C)cc1 (centres undefined),inactive: 109%
13,O=c1c2sc3ccccc3c2n(Cc2cccc(Cl)c2)c(=O)n1Cc1ccco1,inactive: 101%
14,CC(=O)c1ccc(NC(=O)CCc2c(C)nn(-c3ccc(N4CCOCC4)nn3)c2C)cc1,inactive: 67%
15,Cc1cc(C)c(S(=O)(=O)NCCc2cc3ccc(C)c(C)c3[nH]c2=O)c(C)c1,inactive: 82%
16,COc1ccc(-c2noc(-c3ccc(NCc4cccnc4)c([N+](=O)[O-])c3)n2)cc1OC,inactive: 105%
17,Cc1ccccc1OCCn1c(=N)n(C(C)C)c2ccccc21,inactive: 68%
18,Cc1cc(NC(=O)c2cc(-c3cccc(Cl)c3)on2)n(-c2ccccc2)n1,inactive: 91%
19,CCOc1ccc(C2=CC(c3cccc(Br)c3)n3c(nc4ccccc43)N2)cc1Cl (centres undefined),inactive: 109%
20,Cc1cc(C)cc(-n2c(C)nc3cc(C(=O)O)ccc32)c1,inactive: 62%
21,CCOc1ccccc1NC(=O)c1cnccn1,inactive: 78%
22,CC(C)CC(=O)Nc1nnc(S(=O)(=O)N(CC(C)C)c2ccccc2)s1,inactive: 111%
23,Cc1cc2oc(C(=O)Nc3ccc(S(=O)(=O)N(C)Cc4ccccc4)cc3)cc(=O)c2cc1C,inactive: 49%

row,Structure (SMILES),survival
1,Cc1ccc(CNC(=O)CCC(=O)N2CC3CCCN3c3ccccc32)cc1 (centres undefined),inactive: 83%
2,O=C(Nc1ccc2oc(-c3cc(Br)ccc3Cl)nc2c1)c1cc2ccccc2o1,inactive: 107%
3,COc1cc(-c2cc3n(C)c(C)c(CCC(=O)O)c(=O)n3n2)cc(OC)c1OC,inactive: 94%
4,CCOc1ccc(NC(=O)C2CCN(C(=O)N3CC(C)Oc4ccc(Cl)cc43)CC2)cc1 (centres undefined),inactive: 100%
5,C/C=N/N(C)c1cc(=O)n(C)c(=O)[nH]1,inactive: 89%
6,COc1ccccc1OCCSc1nc(-c2ccc(C(C)(C)C)cc2)nc2cc(=O)[nH]n12,inactive: 49%
7,Cc1ccc(CNC(=O)Cn2cc(S(=O)(=O)Cc3ccccc3Cl)c3ccccc32)cc1,inactive: 69%
8,CCOc1ccc(NC(=O)C(CC)n2c(=O)c(-c3ccccc3NC(C)=O)nc3ccccc32)cc1 (centres undefined),inactive: 72%
9,O=C(CCOc1ccccc1)N(Cc1cccnc1)c1nc2c(F)cc(F)cc2s1,inactive: 97%
10,COc1cc(OC)c(NC(=O)N2CCSc3ccccc32)cc1Cl,inactive: 74%
11,COc1ccc(CNC(=O)c2cnc3sc(N4CCOCC4)nn3c2=O)cc1,inactive: 129%
12,CC(C)(C)OC(=O)N1CCN(c2ccc(NC(=O)c3cc4ccccc4oc3=O)cc2)CC1,inactive: 97%
13,O=C(CSC1=Nc2ccccc2C2=NC(CCC(=O)NC3CCCCC3)C(=O)N12)Nc1cccc(C(F)(F)F)c1 (centres undefined),inactive: 80%
14,COc1ccc(C(=O)Nc2cc3c(cc2C(=O)c2ccccc2Cl)OCCO3)cc1,inactive: 69%
15,CCc1ccccc1N1CC(c2nc3ccccc3n2CCCOc2ccc(Cl)cc2)CC1=O (centres undefined),active: 41%
16,COc1ccccc1CNC(=O)c1cc2cc3ccc(Cl)cc3nc2o1,inactive: 84%
17,COc1ccc(CCNC(=O)CCc2c(C)nc3c(c(C)nn3-c3ccc(C)c(C)c3)c2C)cc1OC,inactive: 57%
18,CCOc1ccccc1NC(=O)Cn1c(=O)n(CCC(=O)NCc2ccc3c(c2)OCO3)c(=O)c2ccccc21,inactive: 114%
19,COc1cc(OC)c(NC(=O)c2csc3c2CCC(C)C3)cc1Cl (centres undefined),inactive: 109%
20,CCC1(C)Cc2ccccc2-c2[nH]c(=S)[nH]c(=O)c21 (centres undefined),inactive: 114%
21,COc1ccccc1N1CCN(c2ccc(NC(=O)c3ccc(C)cc3)cc2C(=O)O)CC1,inactive: 89%
22,Cc1ccc(NC(=O)CCCn2c(=O)c3cccn3c3ccccc32)c(Cl)c1,inactive: 51%
23,Cc1c(CNC2CCCCC2)c(C(=O)O)c(C)n1Cc1c(F)cccc1Cl,inactive: 83%

row,Structure (SMILES),survival
1,Cn1c(N)c(C#N)c2c(c1=S)CCCC2,inactive: 85%
2,CCOC(=O)N1CCc2c(sc3c2c(=O)n(-c2ccccc2)c(=O)n3CC(=O)Nc2ccc(OC)cc2OC)C1,inactive: 83%
3,COc1ccc(NC(=O)CN2CCN(Cc3ccccc3)S2(=O)=O)c(OC)c1,inactive: 120%
4,CCOc1ccc(OCC)c(NC(=O)c2cc(S(=O)(=O)N3CCCC3)cn2C)c1,inactive: 69%
5,CCOC(=O)c1c(C)oc2nc(C)nc(NCCCN3CCN(c4ccccc4)CC3)c12,inactive: 67%
6,CC(O)c1nc2cc3ccccc3cc2[nH]1 (centres undefined),inactive: 105%
7,COC(=O)C(CCSC)NC(=O)C1CCN(c2ncnc3c2nc2n3CCCCC2)CC1 (centres undefined),inactive: 84%
8,CCOc1ccc(NC(=O)CCc2c(C)nc3nc(C)nn3c2C)cc1,inactive: 92%
9,CCOC(=O)c1c(NC(=O)CCCOc2ccccc2C)sc2c1CCC(C)C2 (centres undefined),active: 16%
10,C/C(=N/OCC(=O)Nc1sc2c(c1C#N)CCCC2)c1cccs1,inactive: 80%
11,Fc1ccc(-n2ncc3c(NC4CCCCCC4)ncnc32)cc1,inactive: 74%
12,COc1ccccc1CNC(=O)c1ccc(Cn2c(SCc3ccccc3)nc3cccnc32)cc1,active: 37%
13,CCNC(=O)CC1C(=O)N(c2ccc(F)cc2)C(=O)N1CCOC (centres undefined),inactive: 84%
14,N#Cc1ccccc1CN1C(=O)c2ccccc2Sc2ccc(C(=O)OCc3ccco3)cc21,inactive: 82%
15,O=C(CCc1ccccc1)NCc1nc2cccnc2n1Cc1ccc(F)cc1,active: -4%
16,CCOc1ccc(C(=O)N2CCC(c3nnc(-c4ccccc4OC)o3)CC2)cc1,inactive: 118%
17,CC(C)(C)OC(=O)N1CCC(c2c(C(=O)N3CCN(C(=O)c4ccco4)CC3)cnn2-c2ccc(F)cc2F)CC1,inactive: 109%
18,CCOc1ccc(-n2nc3ccc(NC(=O)Cc4ccccc4)cc3n2)cc1,inactive: 74%
19,CCCOC(=O)c1c(NC(=O)c2cc3ccccc3c(=O)o2)sc2c1CCC(C)C2 (centres undefined),inactive: 112%
20,Cc1ccc(-c2nnc3c4ccccc4c(C)nn23)cc1NC(=O)c1ccccc1,inactive: 81%
